Laboratory results: the supplement of paper PMC11417369
This is one part of the list.

Test system: PfSIP2 AP2 domain 1 (GST-tagged)
Assay: gcPBM binding intensity (ln(normalized median fluorescence intensity)); higher = stronger DNA binding
In short: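 An Agilent 4 × 180k array carrying primer-extended double-stranded 36-bp intergenic genomic probes and negative controls received GST-tagged P. falciparum DNA-binding domains expressed in E. coli, about 25 μg on average, for 1 h. The binding buffer contained 1× PBS, 1% milk, 0.2 mg/ml BSA, 0.5% salmon testes DNA and 0.03% Triton X-100. Binding intensity is the top Masliner-normalised natural-log median intensity across replicate spots of either probe orientation, read after Alexa488 anti-GST antibody staining and a 488 nm scan.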

Sequence | gcPBM binding intensity (ln)
ACATCAAGAATTATTAAGAATACGGATAGATAAAAT [GTGCAC_negctrl_site261] | 6.99
TTTCAAAATGTGTAAAATAAAAATAATATCATTACA [TGCATGCA_negctrl_site521] | 7
ATGTGATATAAGTACACACACATATGTATATAGAAT [CACACA_site1823] | 7.17
AATGTATATATGTAATGTACATATGTAATGTATATA [XGTACX_site6509] | 7.03
AATATAGATATAACCACACACATACATCTAATTCTA [CACACA_site1760] | 6.97
GAAAAGAACAAGAGCATGCACTTAATAAGAATAATA | 7.25
TGTTTCTTATTTTTTTCACACACTAAACATTTCAAA [CACACA_site2218] | 7.56
AAAAAAAGATTATACACACACATATATAAACCTACA [CACACA_site710] | 6.97
TCTATACCTATTCTTACACACATATGTATATATATA [CACACA_site563] | 8.1
TTTTTTTTTTTTGAAACATGCATTGTTTTATTCTTA [TGCATGCA_site15] | 6.74
ATATATATATAATCAAGTACACAGTAATAAAAAGAA [XGTACX_site1070] | 8.59
AATAATAACTGTAGGTGTACGTAAAAAAAAAATTAT [XGTACX_site3133] | 7.32
ATTGTGTTCATCAGCACACACAACATCATGCAATAA [CACACA_site6960] | 7.15
TTTTTTTTTTTTTGTTGTACAATACTTAATCATTAT [XGTACX_site3422] | 7.33
TAAATATATATTATATGTACTTATATATATATATAT [XGTACX_site4448] | 9.59
TAAATCAGCCATAACACACATACATATATACATAAA [CACACA_site396] | 7.04
TTTTTCATTTTTAAAATAATTATAATATTATACATA [XGTACX_negctrl_site43] | 7.25
ATAATTAACAAATACACACACACACGCCCACAAAAA [CACACA_site6389] | 7.22
AGCAAATAAATAAATAAATAAATAAATATATATATA [TGCATGCA_negctrl_site40] | 9.16
TTTTAATAAAAGCCCATGCACACCTTAGAAAGTTTT [CACACA_site346] | 7.28
ATATATATGTGTAAAAGTACATATATTTTGAAATAT [XGTACX_site4024] | 7.21
TGGGCACCCATATACACACACAAATACAATGATAAA [CACACA_site4762] | 8.64
TATATATATGTATATGTGCACAGTTTTCTTATTAAA [GTGCAC_site9990] | 9.31

Sequence | gcPBM binding intensity (ln)
GGAAAAGGTATCCGTTCACACATAAATGGATACCAT [CACACA_site5072] | 6.53
AAAAAAAAAAAAATGTGTACATACATATATTTATAT [XGTACX_site3076] | 7.41
ATTACATATTGATAAGTGCAAGTGTGAGAAATGTTA | 7.65
TCTATATAGATTTGCACACATAAAAATGCTTATATA [CACACA_site2389] | 7.16
AATATATTATATATATGTACATATGTGTATACATTT [XGTACX_site937] | 7.09
TTTTATTTATTTTATTGTACATATATAAAACTATGA [XGTACX_site3476] | 7.02
CAATCAAATGGACACACACACACCTAAACATAAAAG [CACACA_site5524] | 7.21
ATTAAAAAATTACAAGCATGCTTGTTAAAATTTTTT [TGCATGCA_site941] | 6.61
CTTTTTTTTTTAAATTGTACAAATGTGATGTAATAG [XGTACX_site3219] | 7.31
TATTTTAATATGTATACATGCATACCTACTCATACA [TGCATGCA_site779] | 6.94
TAAAATTTTATAAAGGAACACACATTTTTTTTTTTT [CACACA_site8740] | 6.87
AACTTGTATTTATACACACACACACTGTCTTTTTTT [CACACA_site7009] | 6.94
TAGACAAAATATAATGCACACTATTATTTTTATTTA [CACACA_site5508] | 7.33
AAAAAAGTTGTATTTGCACACATAAAAAAAAGATAT [CACACA_site3839] | 7.32
AATTTAAAAATGGACACACACAAAAAATAATACTTA [CACACA_site250] | 6.92
GTATATTATATTGGGTGTACCATATATAATATAATC [XGTACX_site8579] | 7.1
TTATAAATAAAAAATACACACATATATATATATATA [CACACA_site207] | 9.36
TAAAAATATATATGATTGCACTTAGGACAATATATA | 7.42
GGAAACAAAAAATATATACACACTAATCATAAAAAA [CACACA_site7890] | 6.81
ATTAATATATTATCATGTACACAAAAATAATTTTAT [XGTACX_site7257] | 7.36
TATTCTCTCTTATGAACACACATTTTTATTTTCAAA [CACACA_site7554] | 7.25
AAGAAAAATATATAAATAAATAAATATATAAATATA [CACACA_negctrl_site836] | 6.7
AGAAAGAAAGAATACACACACACATATATAAATATC [CACACA_site7716] | 6.89

Sequence | gcPBM binding intensity (ln)
ATTATCAATATGAAGGTGCATTTAAATAATATTTAC | 10.7
TATATTCTTTATAGGTGTACTTAATAAATAAAAAAT [XGTACX_site5378] | 7.34
TATGAACATAAATTTGCACACTGGATATAATATATA [CACACA_site2155] | 7.21
TATATATATGTGTTTACACACAATAATGAATTAAAA [CACACA_site4659] | 7.28
TATCTAGTTACTCCTTGTACATAATAAATGATTTTT [XGTACX_site5674] | 7.18
ACTAAACTTTTATGTACACACATATAACATTAATTT [CACACA_site5276] | 7.42
TACGTAAAAATAGGACGTACTTATTTAGAAACCATA [XGTACX_site2498] | 7.09
TTGGTACCTATAGATACACACATATATACCTATATA [CACACA_site5812] | 6.81
TACAAAATGGGGAACACACACATATATATATATATA [CACACA_site3844] | 9.36
AAATATTATAGCACCACACACTTATTTTATTTATAT [CACACA_site7133] | 7.88
ATCATCTATGTTATTACACACGTTATGTTATTATAA [CACACA_site5502] | 6.96
TTTAGATAATTCATTACACACATGTATATTTATATA [CACACA_site7602] | 6.95
TTTTTTTTTTTTTTATGTACGAAAGAAAAGCACATA [XGTACX_site8261] | 7.16
TAACGAATTTAAATTTGTACATATATAAATATATAA [XGTACX_site2168] | 6.92
TATATATATAATATTGCACACAAAATTAAAAGTAAA [CACACA_site7889] | 8.02
AAAAAAAAAAAATGTGTGCACATTATTTCAACTTAA | 8.69
TATTTTATCTATTTGTGTACTTATATTTATGCAAAA [XGTACX_site1499] | 7.25
AAATTATTAAAAAAAAGTACATATATATATATATAT [XGTACX_site8313] | 9.76
ATAAATAATATATATACACACATATCTATACATATT [CACACA_site487] | 7.05
ATAATACACGATTATTTTCCCTTTATGTAAATATAT [CACACA_negctrl_site1107] | 6.8
AAAAAAAATTAATTAGTGCAAAATATATACAAAATA [GTGCAC_site9762] | 7.93
TAAGAAAATATTTATGTATGCATGTCCTAATATTTC [TGCATGCA_site295] | 7.28
ATATAAAATATTAGTAGTACCATTAACAGTATTGTT [XGTACX_site5912] | 6.93

Sequence | gcPBM binding intensity (ln)
ATTAAGATGTATATATGTACATATTACATACATATA [XGTACX_site8657] | 7.11
TATGAAAAAAAAAATACACACACGAGTTGTTATACA [CACACA_site3188] | 6.74
AATGAAATATGGATGGGTACACATTTGATTTTATTA [XGTACX_site6155] | 6.78
ATATATATAAACATATGTACACATATATATAATACA [XGTACX_site1848] | 7.66
TGTATGTATAGAAACACACATACATATATATAATAT [CACACA_site1405] | 6.92
ATTTGTTTATAGGCCATAAAATATTTAATTCATTTG [CACACA_negctrl_site1824] | 6.81
AGTATTATATTTGTATGTACGTAGTAATATATAAAA [XGTACX_site528] | 7.06
TTTTTCATAAATATATGTACATATATTTTATATAAC [XGTACX_site3402] | 7.08
ATTTATATTTATGATACACACACGTATATTCACATA [CACACA_site460] | 7.07
AACAAGAAAAAAAAAAAAAAAAAAAAAAAATATTTT [XGTACX_negctrl_site428] | 6.71
ATATATATATTTTTATGAGGCATAAGTAATATTTTT [TGCATGCA_negctrl_site317] | 8.34
AATGTAATATAAATATGTACATAATATATATAATTA [XGTACX_site4762] | 6.87
TTTTTATTTTTTTAGTATACGTACTAGGTTTGTTCT [XGTACX_site645] | 7.03
ATATATTTATATATATGTACTTAAAACATTTCGATG [XGTACX_site328] | 6.86
CATAAACTTTTTAACACACACTTATATATATATATA [CACACA_site4747] | 9.18
TAATTTTTATGAAGAAGTACAAAATCTACTATCATA [XGTACX_site4985] | 6.77
CTAAATAAAGTTAACACACACATAATATATATATGT [CACACA_site486] | 7.02
AAAAATTCTTTTTCATCTATATGCAGAAAGAAAAAG [CACACA_negctrl_site1201] | 6.8
TACATCTGTAATGTGTGTACATATATGTATATATTT [XGTACX_site1805] | 7.06
GAATTTATGAACTGTGCATGTAAAAAAAACAACAAA [TGCATGCA_site449] | 8.15
TATAATAATATATATTGTACACACAAAATGGGAAAA [XGTACX_site3911] | 7.37
